Structures can show the parent of a compound that is named as a salt. ± gives the standard deviation of the averaged measurements. The full ranking holds about 1,900 compounds; the median of “normalised cell viability (NPI; 0 = phenylarsine oxide control, 1 = DMSO control)” is about 1, and the lowest 2% start at about 0.039. This is one part of the list.
Test system: NCI-H1944
Assay: normalised cell viability (NPI; 0 = phenylarsine oxide control, 1 = DMSO control) (fraction of DMSO control); NCI-H1944 is a non-small cell lung cancer line; higher = more viable cells (less compound toxicity)
Details: 6 days
[1] = glucocorticoid arm: hydrocortisone 2.75 uM co-treatment, compound 1 µM
[2] = glucocorticoid arm: hydrocortisone 2.75 uM co-treatment, compound 5 µM
[3] = glucocorticoid arm: hydrocortisone 2.75 uM pre-treated 2 days and continued, compound 1 µM
[4] = glucocorticoid arm: hydrocortisone 2.75 uM pre-treated 2 days and continued, compound 5 µM
[5] = glucocorticoid arm: vehicle, compound 1 µM
[6] = glucocorticoid arm: vehicle, compound 5 µM
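Note: CTB read-out in 384-well plates, mean of triplicate wells, normalised per plate against 1 µM phenylarsine oxide and 0.1% DMSO, compounds added 24 h after seeding.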

| Compound | normalised cell viability [1] | normalised cell viability [2] | normalised cell viability [3] | normalised cell viability [4] | normalised cell viability [5] | normalised cell viability [6] |
| --- | --- | --- | --- | --- | --- | --- |
| COc1ccc2c(c1)[C@]13CCCC[C@@H]1[C@H](C2)N(C)CC3 [Dextromethorphan hydrobromide monohydrate] | 0.99 ± 0.017 | 0.96 ± 0.01 | 0.997 ± 0.022 | 0.999 ± 0.018 | 0.9807 ± 0.0051 | 0.99 ± 0.0066 |
| Cc1cccc(C(C)c2c[nH]cn2)c1C (stereo unspecified) [Medetomidine HCl] | 1.017 ± 0.0058 | 1.07 ± 0.023 | 1.01 ± 0.013 | 1.033 ± 0.0058 | 1.013 ± 0.0058 | 1.013 ± 0.0058 |
| CNCC(O)c1ccc(O)cc1 (racemic) [(±)-Synephrine] | 0.987 ± 0.013 | 1.01 ± 0.015 | 0.924 ± 0.15 | 0.988 ± 0.0046 | 1.01 | 1.02 ± 0.021 |
| CN(N=O)c1ccc(O)c(O)c1 [Me-3,4-dephostatin] | 1.017 ± 0.0058 | 1.01 ± 0.017 | 1.007 ± 0.0058 | 1.05 ± 0.086 | 1.01 ± 0.011 | 1.02 ± 0.01 |
| Cc1ccccc1-n1c(Cn2cnc3c(N)ncnc32)nc2cccc(C)c2c1=O | 1.003 ± 0.0058 | 1.02 ± 0.028 | 1 ± 0.015 | 1.02 ± 0.031 | 1 ± 0.017 | 1.01 ± 0.011 |
| CCCN1CCC[C@@H]2Cc3nc(N)ncc3C[C@H]21 [Quinelorane dihydrochloride] | 0.998 ± 0.0017 | 1 ± 0.018 | 0.969 ± 0.054 | 1.017 ± 0.0058 | 0.997 ± 0.012 | 0.997 ± 0.002 |
| C=CC[C@]1(O)CC[C@H]2[C@@H]3CCC4=CC(=O)CCC4=C3C=C[C@@]21C [Altrenogest] | 1.03 | 1.06 ± 0.021 | 1.01 ± 0.018 | 1.06 ± 0.015 | 1.017 ± 0.0058 | 1.007 ± 0.0058 |
| CC(Cc1ccc(O)cc1)NCC(O)c1cc(O)cc(O)c1 (stereo unspecified) [Fenoterol hydrobromide] | 1 ± 0.013 | 1.01 ± 0.028 | 1.01 ± 0.019 | 1.03 ± 0.011 | 0.99967 ± 0.00058 | 0.9967 ± 0.0042 |
| C1CCc2nnnn2CC1 [Pentylenetetrazole] | 1.01 | 1.02 ± 0.023 | 1.01 ± 0.011 | 1.02 ± 0.023 | 0.999 ± 0.0017 | 1.01 ± 0.019 |
| Cn1cnc(CCN)c1 [1-Methylhistamine dihydrochloride] | 0.998 ± 0.013 | 0.98 ± 0.011 | 0.996 ± 0.025 | 0.961 ± 0.022 | 1.002 ± 0.0068 | 1.01 ± 0.018 |
| C=CCN1CC[C@]23c4c5ccc(O)c4O[C@H]2/C(=N/NC(=O)c2ccccc2)CC[C@@]3(O)[C@H]1C5 [Naloxone benzoylhydrazone] | 0.998 ± 0.002 | 1.01 ± 0.03 | 1 ± 0.015 | 1.03 ± 0.071 | 0.991 ± 0.0035 | 1 ± 0.017 |
| S=C(NC1CCCCC1)N1CCC(c2cnc[nH]2)CC1 [Thioperamide maleate] | 1 ± 0.011 | 1.02 ± 0.01 | 1.02 ± 0.028 | 1.003 ± 0.0058 | 0.9983 ± 0.0015 | 1 |
| NC(N)=NOCC[C@H](N)C(=O)O [L-Canavanine sulfate] | 0.991 ± 0.018 | 0.999 ± 0.011 | 1.003 ± 0.0058 | 0.995 ± 0.0071 | 1.01 | 1.007 ± 0.0058 |
| NC(N)=NOCC[C@H](N)C(=O)O [L-Canavanine] | 1 ± 0.0095 | 1.01 ± 0.01 | 1.003 ± 0.0058 | 0.988 ± 0.011 | 1 ± 0.0091 | 1.005 ± 0.0092 |
| C=C(C)[C@H]1CN[C@H](C(=O)O)[C@H]1CC(=O)O [Kainic acid] | 0.993 ± 0.015 | 0.995 ± 0.025 | 1.01 ± 0.013 | 1.03 ± 0.092 | 0.9897 ± 0.0076 | 0.995 ± 0.024 |
| N[C@@H](Cn1ccc(=O)[nH]c1=O)C(=O)O [S(-)-Willardiine] | 1.007 ± 0.0058 | 1.023 ± 0.0058 | 0.847 ± 0.28 | 1.02 ± 0.015 | 1.002 ± 0.007 | 1.007 ± 0.0058 |
| CCCCN1[C@@H]2CC[C@H]1CC(OC(c1ccc(F)cc1)c1ccc(F)cc1)C2 (stereo partly specified) [JHW 007 hydrochloride] | 0.969 ± 0.017 | 0.629 ± 0.055 | 0.987 ± 0.011 | 0.969 ± 0.011 | 0.993 ± 0.003 | 0.228 ± 0.12 |
| CC12CCC3C(CCC4=C(O)C(=O)CCC43C)C1CCC2=O (stereo unspecified) [4-Androsten-4-ol-3,17-dione] | 0.9977 ± 0.0021 | 0.9747 ± 0.0093 | 0.999 ± 0.001 | 1 ± 0.011 | 0.995 ± 0.015 | 1.003 ± 0.0061 |
| O=C(N[C@H]1CN2CCC1CC2)c1ccc(Cl)cc1 | 1.02 ± 0.01 | 1.01 ± 0.022 | 1.023 ± 0.0058 | 1.02 ± 0.015 | 0.998 ± 0.0035 | 1.013 ± 0.0058 |
| O=[N+]([O-])c1ccc2nc(N3CCNCC3)ccc2c1 [Quipazine, 6-nitro-, maleate] | 1.013 ± 0.0058 | 0.992 ± 0.0035 | 0.851 ± 0.29 | 1.063 ± 0.0058 | 1.023 ± 0.0058 | 1.02 |
| c1ccc2c(N3CCNCC3)cccc2c1 [1-(1-Naphthyl)piperazine hydrochloride] | 1.01 ± 0.01 | 1.004 ± 0.0098 | 1.02 ± 0.032 | 1.02 ± 0.01 | 0.9973 ± 0.0046 | 1 ± 0.011 |
| CCCN(CCC)CCc1c[nH]c2ccc(C(N)=O)cc12 [N,N-Dipropyl-5-carboxamidotryptamine maleate] | 0.999 ± 0.01 | 0.973 ± 0.011 | 0.9867 ± 0.0055 | 0.9693 ± 0.0071 | 0.994 ± 0.0027 | 0.9917 ± 0.0021 |
| CC(C)N(CCC(C(N)=O)(c1ccccc1)c1ccccn1)C(C)C (stereo unspecified) [Disopyramide] | 0.989 ± 0.016 | 0.989 ± 0.0095 | 0.998 ± 0.02 | 0.983 ± 0.0061 | 0.982 ± 0.0066 | 0.984 ± 0.0027 |
| CC(C)N(CCC(C(N)=O)(c1ccccc1)c1ccccn1)C(C)C (stereo unspecified) [Disopyramide phosphate] | 1.01 ± 0.01 | 1.013 ± 0.0058 | 1.01 ± 0.011 | 1.01 ± 0.011 | 0.9843 ± 0.0063 | 0.982 ± 0.0046 |
| N=C(N)NN [Aminoguanidine hydrochloride] | 0.9863 ± 0.0046 | 0.971 ± 0.0087 | 0.9883 ± 0.0047 | 0.965 ± 0.019 | 0.971 ± 0.015 | 0.976 ± 0.0046 |
| N=C(N)NN [Aminoguanidine hemisulfate] | 1.023 ± 0.0058 | 0.99 ± 0.015 | 1.02 | 0.999 ± 0.016 | 1.007 ± 0.0058 | 1.007 ± 0.0058 |
